Measurements reported in the supplement of paper PMC8728848.
Some of the results follow.

Experiments:
Assay in all cases: glycan array binding signal (z-score within array); higher = stronger binding
Conditions in all cases: glycan notation: IUPAC condensed, linker removed; mutation: R349A
[1] = biological target: Fuc(a1-2)Gal
Method in brief: (§1)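 Glycan array data were curated from 3228 arrays in the Consortium for Functional Glycomics database and kept only where the protein sequence was available. Glycan names were converted to IUPAC-condensed notation, and columns mapping to the same glycan were averaged. The binding signal is a within-array Z-score, averaged across arrays of the same protein sequence at different concentrations or buffers and across linkers. Negative Z-scores can be read as non-binding.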

[2] = biological target: Fuc(a1-2)Gal(b1-3)GalNAc
Method in brief: as §1

[3] = biological target: Fuc(a1-2)Gal(b1-3)GalNAc(b1-3)Gal
Method in brief: as §1

[4] = biological target: Fuc(a1-2)Gal(b1-3)GalNAc(b1-3)Gal(a1-4)Gal(b1-4)Glc
Method in brief: as §1

[5] = biological target: Fuc(a1-2)Gal(b1-3)GalNAc(b1-4)[Neu5Ac(a2-3)]Gal(b1-4)Glc
Method in brief: as §1

[6] = biological target: Fuc(a1-2)Gal(b1-3)GlcNAc
Method in brief: as §1

[7] = biological target: Fuc(a1-2)Gal(b1-3)GlcNAc(b1-3)Gal(b1-4)Glc
Method in brief: as §1

[8] = biological target: Fuc(a1-2)Gal(b1-3)[Fuc(a1-4)]GlcNAc
Method in brief: as §1

[9] = biological target: Fuc(a1-2)Gal(b1-4)Glc
Method in brief: as §1

[10] = biological target: Fuc(a1-2)Gal(b1-4)Glc6S
Method in brief: as §1

[11] = biological target: Fuc(a1-2)Gal(b1-4)GlcNAc
Method in brief: as §1

[12] = biological target: Fuc(a1-2)Gal(b1-4)GlcNAc(b1-3)Gal(b1-4)GlcNAc
Method in brief: as §1

[13] = biological target: Fuc(a1-2)Gal(b1-4)GlcNAc(b1-3)Gal(b1-4)GlcNAc(b1-3)Gal(b1-4)GlcNAc
Method in brief: as §1

[14] = biological target: Fuc(a1-2)Gal(b1-4)GlcNAc6S
Method in brief: as §1

[15] = biological target: Fuc(a1-2)Gal(b1-4)[Fuc(a1-3)]GlcNAc
Method in brief: as §1

[16] = biological target: Fuc(a1-2)Gal(b1-4)[Fuc(a1-3)]GlcNAc(b1-3)Gal(b1-4)[Fuc(a1-3)]GlcNAc
Method in brief: as §1

[17] = biological target: Fuc(a1-2)Gal(b1-4)[Fuc(a1-3)]GlcNAc(b1-3)Gal(b1-4)[Fuc(a1-3)]GlcNAc(b1-3)Gal(b1-4)[Fuc(a1-3)]GlcNAc
Method in brief: as §1

[18] = biological target: Fuc(a1-2)Gal6S(b1-4)Glc
Method in brief: as §1

[19] = biological target: Fuc(a1-2)Gal6S(b1-4)Glc6S
Method in brief: as §1

[20] = biological target: Fuc(a1-2)Gal6S(b1-4)GlcNAc
Method in brief: as §1

[21] = biological target: Fuc(a1-2)[Gal(a1-3)]Gal
Method in brief: as §1

[22] = biological target: Fuc(a1-2)[Gal(a1-3)]Gal(b1-3)GlcNAc
Method in brief: as §1

[23] = biological target: Fuc(a1-2)[Gal(a1-3)]Gal(b1-4)Glc
Method in brief: as §1

[24] = biological target: Fuc(a1-2)[Gal(a1-3)]Gal(b1-4)GlcNAc
Method in brief: as §1

[25] = biological target: Fuc(a1-2)[Gal(a1-3)]Gal(b1-4)[Fuc(a1-3)]GlcNAc
Method in brief: as §1

[26] = biological target: Fuc(a1-2)[Gal(a1-4)]Gal(b1-4)GlcNAc
Method in brief: as §1

[27] = biological target: Fuc(a1-2)[GalNAc(a1-3)]Gal
Method in brief: as §1

[28] = biological target: Fuc(a1-2)[GalNAc(a1-3)]Gal(b1-3)GlcNAc
Method in brief: as §1

[29] = biological target: Fuc(a1-2)[GalNAc(a1-3)]Gal(b1-4)Glc
Method in brief: as §1

[30] = biological target: Fuc(a1-2)[GalNAc(a1-3)]Gal(b1-4)GlcNAc
Method in brief: as §1

B1: Surfactant Protein D (Human); Neck + Carbohydrate Recognition Domain (NCRD) (Homo sapiens) (protein)
chain: MLLFLLSALVLLTQPLGYLEAEMKTYSHRTMPSACTLVMCSSVESGLPGRDRDGREGPRGEKGDPGLPGAAGQAGMPGQAGPVGPKGDNGSVGEPGPKGDTGPSGPPGPPGVPGPAGREGALGKQGNIGPQGKPGPKGEAGPKGEVGAPGMQGSAGARGLAGPKGERGVPGERGVPGNTGAAGSAGAMGPQGSPGARGPPGLKGDKGIPGDKGAKGESGLPDVASLRQQVEALQGQVQHLQAAFSQYKKVELFPNGQSVGEKIFKTAQFVKPFTEAQLLCTQAGGQLASPRSAAENAALQQLVVAKNEAAFLSMTDSKTEGKFTYPTGESLVYSNWAPGEPNDDGGSEDCVEIFTNGKWNDRACGEKALVVCEF
- glycan array binding signal (z-score) [1]: -0.757
- glycan array binding signal (z-score) [2]: -0.311
- glycan array binding signal (z-score) [3]: -0.63
- glycan array binding signal (z-score) [4]: -0.613
- glycan array binding signal (z-score) [5]: -0.586
- glycan array binding signal (z-score) [6]: -0.93
- glycan array binding signal (z-score) [7]: -0.606
- glycan array binding signal (z-score) [8]: -0.721
- glycan array binding signal (z-score) [9]: -0.684
- glycan array binding signal (z-score) [10]: 0.656
- glycan array binding signal (z-score) [11]: -0.584
- glycan array binding signal (z-score) [12]: -0.301
- glycan array binding signal (z-score) [13]: 0.167
- glycan array binding signal (z-score) [14]: 2.04
- glycan array binding signal (z-score) [15]: -0.727
- glycan array binding signal (z-score) [16]: 0.115
- glycan array binding signal (z-score) [17]: -0.073
- glycan array binding signal (z-score) [18]: 1.18
- glycan array binding signal (z-score) [19]: 2.94
- glycan array binding signal (z-score) [20]: 1.28
- glycan array binding signal (z-score) [21]: -0.627
- glycan array binding signal (z-score) [22]: -0.887
- glycan array binding signal (z-score) [23]: -0.602
- glycan array binding signal (z-score) [24]: -0.659
- glycan array binding signal (z-score) [25]: -0.441
- glycan array binding signal (z-score) [26]: -0.199
- glycan array binding signal (z-score) [27]: -0.147
- glycan array binding signal (z-score) [28]: -0.27
- glycan array binding signal (z-score) [29]: -0.584
- glycan array binding signal (z-score) [30]: -0.545
